Measured values as given in PubChem BioAssay AID485294 (National Center for Advancing Translational Sciences (NCATS), 2010).
The campaign covered roughly 370,000 compounds. About 150 (0.041%) were called active. The shares of active, inactive and inconclusive entries below differ from those in the screen. The call rests on the fitted dose curve; in most records, active means well fitted inhibition curve with a large enough effect; inconclusive means small, poorly fitted or top-dose-only effect; inactive means flat fitted curve, though single readings scatter. Potencies of inconclusive entries are left out as doubtful fits.

target: Beta-lactamase (Escherichia coli (strain K12)) (UniProt P00811); assay: qHTS Inhibitors of AmpC Beta-Lactamase (assay with detergent); settings: AmpC hydrolysis of nitrocefin, absorbance 480 nm, 0.01% Triton; activity change, negative = inhibition: at 114 µM (top of the series); further: nearly all actives have a fitted effect of over 25% in size;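 on activity change, negative = inhibition: 0% = no-compound wells and -100% = no-enzyme wells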
Sequence of UniProt P00811 (P00811 whole entry, looked up): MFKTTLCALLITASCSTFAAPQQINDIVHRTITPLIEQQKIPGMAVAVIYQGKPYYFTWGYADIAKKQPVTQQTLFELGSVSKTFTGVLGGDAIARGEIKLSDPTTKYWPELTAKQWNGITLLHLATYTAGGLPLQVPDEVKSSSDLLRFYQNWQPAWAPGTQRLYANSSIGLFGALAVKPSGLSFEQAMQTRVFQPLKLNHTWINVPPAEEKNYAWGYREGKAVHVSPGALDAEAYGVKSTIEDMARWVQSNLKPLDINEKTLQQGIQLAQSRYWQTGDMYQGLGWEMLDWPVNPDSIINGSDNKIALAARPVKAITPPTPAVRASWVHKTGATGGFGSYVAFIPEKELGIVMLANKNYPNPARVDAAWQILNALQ
Summary of the method: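 AmpC (5.3 nM in the dispensed reagent) in 20 mM phosphate pH 7.0 with 0.01% (detergent screen) or 0.0001% Triton X-100 was preincubated with compounds for 15 min at room temperature. Nitrocefin was then added from an 800 uM solution, and hydrolysis was followed at 480 nm.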
Potency means the concentration at half of the fitted maximal effect; tags describe the fitted curve by direction and shape.

Structure (SMILES) | Potency | activity change, negative = inhibition
CC(C)(C)c1ccc(OCCC(=O)Nc2cccc(S(=O)(=O)NC3=NCCCCC3)c2)cc1 | inconclusive [inhibitor, single point] | –
COc1ccc(NC(=O)c2[nH]c(C)c(C(C)=O)c2C)cc1S(=O)(=O)Nc1ccc(Br)cc1 | – | inactive: 0.355%
CCOC(=O)c1c(C)nc2sccn12 | inconclusive [inhibitor, full curve, poor fit] | –
Cc1cnc2c(c1)C(=O)c1ccccc1-2 | – | inactive: 6.11%
CCC(C)c1ccccc1OCCCN(C)Cc1ccccc1 (configuration not stated) | inconclusive [inhibitor, full curve, poor fit] | –
O=C1CN(c2ccc(F)cc2)C(=S)N1c1ccccc1 | inconclusive [inhibitor, full curve, poor fit] | –
COc1ccc(NC(=O)NCCCN2CCN(c3cc(C)ccc3C)CC2)cc1 | inconclusive [inhibitor, full curve, poor fit] | –
CC(C)CCSc1nc2[nH]ncc2c(=O)[nH]1 | inconclusive [inhibitor, partial curve] | –
CC(C)Oc1cccc(C(=O)Nc2ccc3oc(-c4ccccc4)nc3c2)c1 | – | inactive: 15.1%
Cc1ccc([C@@H]2C[C@H]3CN(Cc4cccc(Cl)c4)C(=O)[C@]34CCCN24)o1 | – | inactive: 1.67%
CC(C)OCC1CC(CC(=O)NC(=S)Nc2cccc([N+](=O)[O-])c2)C(=O)O1 (configuration not stated) | inconclusive [inhibitor, full curve, poor fit] | –
O=[N+]([O-])/C(C(Cl)=C(Cl)Cl)=C(/Sc1ccccc1)N1CCCCC1 | – | inactive: 0.862%
Cc1nnc(SCC(N)=O)n1CC1CCCO1 (configuration not stated) | inconclusive [inhibitor, single point] | –
Cn1c(C(=O)N2CCN(c3cccc(C(F)(F)F)c3)CC2)cc2sccc21 | inconclusive [inhibitor, full curve, poor fit] | –
COc1cccc(C2c3c(oc4ccc(F)cc4c3=O)C(=O)N2CCN2CCOCC2)c1OC (configuration not stated) | inconclusive [inhibitor, full curve, poor fit] | –
O=C(Cc1ccccc1)NNC(=O)Cc1ccccc1 | inconclusive [inhibitor, partial curve] | –
Cc1cc(=O)oc(C)c1C(=O)n1nc(C)c2c1C[C@@H]1[C@H]2C1(C)C | inconclusive [inhibitor, partial curve] | –
Oc1c(Cl)cc(Cl)cc1Sc1cc(Cl)cc(Cl)c1O | inconclusive [inhibitor, full curve] | –
O=c1c2oc3ccccc3c2ncn1Cc1ccc(Br)cc1 | – | inactive: 2.89%
CSCC(=O)NC1CCCN(C2Cc3ccccc3C2)C1 (configuration not stated) | inconclusive [inhibitor, full curve, poor fit] | –
O=C(O)c1ccc2c(=O)n3c(nc2c1)/C(=C/c1cccc(Cl)c1Cl)CC3 | inconclusive [inhibitor, full curve] | –

Structure (SMILES) | Potency | activity change, negative = inhibition
c1ccc(Oc2cc(-n3cncn3)ncn2)cc1 | inconclusive [inhibitor, full curve] | –
COCCn1nnnc1C(CC(C)C)N1CCN(C(=O)c2ccco2)CC1 (configuration not stated) | inconclusive [inhibitor, full curve, poor fit] | –
Cc1ccc(-c2noc(COc3ccccc3C)n2)cc1 | inconclusive [inhibitor, full curve, poor fit] | –
CCOC(=O)CN1N=C(c2ccc(Cl)cc2)CCC1=O | – | inactive: 1.58%
N#Cc1cc2c(nc1SCC(=O)N1CCCCC1)CCCCC2 | inconclusive [inhibitor, full curve, poor fit] | –
O=C(NCCN1CCOCC1)C1CCC(=O)N1Cc1ccccc1Cl (configuration not stated) | inconclusive [inhibitor, partial curve] | –
COc1ccc(NC(=O)CN(C)C(=O)C(Sc2ccccc2)c2ccccc2)cc1 (configuration not stated) | – | inactive: -0.895%
C/C(=N\NC(=O)COc1ccc(C)cc1C(C)C)c1cc2ccccc2o1 | inconclusive [inhibitor, partial curve, poor fit] | –
CCOC(=O)CNc1nc(C(C)(C)C)nc2c1nnn2Cc1ccccc1Cl | inconclusive [inhibitor, full curve, poor fit] | –
O=S1CCCSC1c1cccnc1 (configuration not stated) | inconclusive [inhibitor, partial curve] | –
CCOC(=O)c1c(N)n(Cc2ccco2)c2nc3ccccc3nc12 | inconclusive [inhibitor, partial curve, poor fit] | –
COc1cccc(CNC(=O)CCc2ccc(OC)c(OC)c2)c1 | inconclusive [inhibitor, partial curve, poor fit] | –
O=c1c2[nH]c3ccc(F)cc3c2ncn1CCN1CCOCC1 | inconclusive [inhibitor, full curve, poor fit] | –
O=C(c1cc(-c2cccs2)nc2ccccc12)N1CCN(S(=O)(=O)c2cccc(F)c2)CC1 | – | inactive: 0.473%
CCc1ccc(C2CC(=O)N(c3ccc(F)cc3)C3=C2C(=O)OC3)cc1 (configuration not stated) | inconclusive [inhibitor, full curve, poor fit] | –
Cc1ccc2c(c1)N(CC(=O)NCCCN1C(C)CCCC1C)C(=O)c1cccnc1O2 (configuration not stated) | – | inactive: -8.66%
C/C(=N\NC(=O)c1ccc(-c2ccccc2)cc1)c1ccco1 | inconclusive [inhibitor, full curve, poor fit] | –
O=C(Nc1ccc2c(c1)OCCO2)C1c2ccccc2C(=O)N2CCc3ccccc3C12 (configuration not stated) | inconclusive [inhibitor, full curve, poor fit] | –
O=c1nc(N(c2ccccc2)c2ccccc2)[nH]c(=O)[nH]1 | inconclusive [inhibitor, full curve, poor fit] | –
CCCCCN(C(=O)CCC(=O)OCCOc1ccc(OC)cc1)c1c(N)n(CCCC)c(=O)[nH]c1=O | inconclusive [inhibitor, full curve, poor fit] | –
Cc1cc(OCC(=O)Nc2ccc3oc(-c4ccncc4)nc3c2)ccc1Cl | inconclusive [inhibitor, full curve, poor fit] | –
